Laboratory results published in PubChem BioAssay AID651820 (National Center for Advancing Translational Sciences (NCATS), 2012).
Several values for one entry are separate records, joined by “and”; a condition that tells them apart may be missing. Identical values can stand only once. In all, about 340,000 compounds went through this assay and about 12,000 (3.5%) were called active. Inconclusive means that the source gave no clear call. Such entries were picked first, then a sample of the others. Calls follow the shape of the dose curve; as a rule, active = well fitted inhibition curve with a large enough effect; inconclusive = small, poorly fitted or top-dose-only effect, or another doubt; inactive = no such curve, though single readings can be large or run the other way. Potencies of inconclusive entries are doubtful fits and often do not repeat.
Potency is read from the fitted curve at half-maximal effect; tags tell the direction and shape of the fitted curve.

Experiment: qHTS Assay for Inhibitors of Hepatitis C Virus (HCV)
Details: Huh7.5.1 HCVcc-Cre (HCVcc is cell-culture hepatitis C virus) infection, luciferase reporter, 44 h; series mostly up to 41.8 µM
Procedure, shortened: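 A cell-based infection assay in which seeded cells (1,000 per well) receive test compound after 4 h, are inoculated with HCVcc-Cre at approximately 0.5 moi, and are incubated 44 h before luminescence detection.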
In the case of `CCOC(=O)c1c(CSc2ccccc2)n(C)c2cc(Br)c(OC)c(O)c12`, the Potency is reported as inconclusive: 10 µM [inhibitor, partial curve].
In the case of `CCOCc1cn(CC(=O)c2ccc([N+](=O)[O-])cc2)c(C)nc1=N`, the Potency is reported as inconclusive: 22.4 µM [inhibitor, single point].
In the case of `COc1ccccc1N1CCN(C(=O)C2=CC=CN3CCS(=O)(=O)N=C23)CC1`, the Potency is reported as inconclusive: 1.58 µM [inhibitor, partial curve].
In the case of `CC(CCc1ccccc1)NC(=O)CN1CCSc2ccccc21` (stereo unspecified), the Potency is reported as “inactive”.
In the case of `Cc1nnc(N2C(=O)C(O)=C(C(=O)c3ccco3)C2c2ccc(C(C)C)cc2)s1` (stereo unspecified), the Potency is reported as “inactive”.
For `COc1ccc(CCNC(=O)Nc2cccc([N+](=O)[O-])c2)cc1`, the Potency was “inactive”.
With `COc1ccc(C(=O)c2nccc3cc(OC)c(OC)cc23)cc1OC` the Potency was inconclusive: 1.26 µM [inhibitor, full curve].
For `COc1ccc(NC2=NC(C)(C)CS2)cc1`, the Potency was “inactive”.
In the case of `Brc1ccc(-c2ccc(/C=N/Nc3nc(N4CCOCC4)nc(N4CCOCC4)n3)o2)cc1`, the Potency is reported as inconclusive: 6.31 µM [inhibitor, partial curve].
With `COc1ccccc1OCC(=O)N/N=C/c1cccc2cccnc12` the Potency was “inactive”.
With `COc1c(F)c(F)c(C(=O)Nc2ccc(NC(=O)c3ccco3)cc2)c(F)c1F` the Potency was inconclusive: 1.41 µM [inhibitor, full curve].
For `CCOC(=O)C1=C(C)NC(=S)NC1c1ccc(-c2ccc(Cl)cc2)o1` (stereo unspecified), the Potency was inconclusive: 5.01 µM [inhibitor, full curve].
In the case of `C=CCNc1nc(C(=O)OCC(=O)NCc2ccccc2OC)cs1`, the Potency is reported as inconclusive: 11.2 µM [inhibitor, single point].
With `CCOC(=O)c1c(NC(=O)Cc2cccs2)sc(C)c1C` the Potency was active: 35.5 µM.
With `CCCn1c(O)c(N=NC(=O)CNC(=O)/C=C/c2ccc(OC)cc2)c2ccccc21` the Potency was inconclusive: 7.08 µM [inhibitor, partial curve].
In the case of `Cc1ccc(Nc2nc(C(=O)NCc3ccco3)cs2)cc1`, the Potency is reported as inconclusive: 31.6 µM [inhibitor, single point].
With `Cc1ccc(NC(=O)C2CCN(C(=O)NC3CCCCC3)CC2)cc1Cl` the Potency was “inactive”.
In the case of `Cc1ccc(C)n1-c1nnc(N2CCC(C(=O)NCCCN3CCN(C)CC3)CC2)s1`, the Potency is reported as “inactive”.
In the case of `CCCCc1cc(=O)oc2cc(OC(C)C(=O)NCc3ccccn3)c(Cl)cc12` (stereo unspecified), the Potency is reported as inconclusive: 10 µM [inhibitor, partial curve].
For `Cc1cccc(Cn2c(SCCO)nc3c2c(=O)n(C)c(=O)n3C)c1`, the Potency was inconclusive: 10 µM [inhibitor, partial curve].
With `COc1cc(OC)cc(-c2cc3ccccc3c(=O)o2)c1` the Potency was inconclusive: 15.8 µM [inhibitor, single point].
With `CCN(CC)CCNC(=O)c1ccc(NC(=O)c2cccc(S(=O)(=O)N3CCc4ccccc43)c2)cc1` the Potency was inconclusive: 22.4 µM [inhibitor, single point].
For `Cc1coc2c(C)c3oc(=O)c(CCC(=O)NCCCn4ccnc4)c(C)c3cc12`, the Potency was inconclusive: 8.91 µM [inhibitor, partial curve].
With `CC(C)CN(CC(C)C)C(=O)COn1nnc2ccc(S(=O)(=O)N3CCOCC3)cc21` the Potency was “inactive”.
For `Cc1ccccc1S(=O)Cc1ccc(C(=O)NCCCN2CCCCC2)o1` (stereo unspecified), the Potency was “inactive”.
In the case of `CCOc1ccccc1NC(=O)CC1Nc2ccccc2NC1=O` (stereo unspecified), the Potency is reported as inconclusive: 31.6 µM [inhibitor, single point] and inconclusive: 2.51 µM [inhibitor, full curve].
In the case of `C=C(C)CN(CC)c1nc(N)c2c(N)nc3c(c2c1C#N)CC(=O)N3C12CC3CC(CC(C3)C1)C2`, the Potency is reported as active: 3.98 µM.
In the case of `COC(=O)c1cn(-c2ccccc2)nc1-c1ccccc1`, the Potency is reported as active: 11.2 µM.
For `COc1ccc(S(=O)(=O)N2CCC(C(=O)Nc3ccccc3N3CCCCC3)CC2)cc1OC`, the Potency was inconclusive: 2.51 µM [inhibitor, full curve].
In the case of `Nc1nc(SCc2ccc(Cl)cc2Cl)nc2nc3c(cc12)CCCC3`, the Potency is reported as active: 8.91 µM.
In the case of `COc1cc2sc3cc(NCCCN4CCOCC4)ccc3c(=O)c2cc1OC`, the Potency is reported as inconclusive: 10 µM [inhibitor, single point].
For `CCCN(CCC)CCNC(=O)c1cc2c(-c3ccccc3F)nn(C)c2s1`, the Potency was inconclusive: 3.55 µM [inhibitor, full curve].
For `O=C(Nc1cc(C(F)(F)F)ccc1N1CCOCC1)c1ccc2ccccc2n1`, the Potency was inconclusive: 2.51 µM [inhibitor, full curve].
With `CSc1nc2sc3c(c2c(=O)n1C1CCCCC1)CCN(C)C3` the Potency was inconclusive: 22.4 µM [inhibitor, single point].
In the case of `COc1ccccc1N1CCN(C(=O)c2oc3cc(C)cc(C)c3c2C)CC1`, the Potency is reported as inconclusive: 10 µM [inhibitor, single point].
With `CCC(=O)N=c1sc2cc([N+](=O)[O-])ccc2n1CCOC` the Potency was “inactive”.
For `CC(C)(C)n1nc(-c2ccc(F)cc2)c2c(N)ncnc21`, the Potency was “inactive”.
For `COc1ccccc1N1CCN(C(=S)Nc2ccc3nc(N4CCOCC4)cc(C)c3c2)CC1`, the Potency was active: 3.55 µM.
For `COc1cc(CNCCO)cc(Br)c1OCc1ccccc1Cl`, the Potency was inconclusive: 11.2 µM [inhibitor, partial curve].
In the case of `O=C(NNC(=O)c1ccc2nonc2c1)Nc1ccc(Cl)cc1`, the Potency is reported as “inactive”.
For `O=C1/C(=C/c2ccc(O)c(O)c2)SC(=S)N1Nc1ccccc1`, the Potency was inconclusive: 31.6 µM [inhibitor, single point].
For `CC1(NC(=O)COc2ccccc2-c2ccccc2)CCS(=O)(=O)C1` (stereo unspecified), the Potency was “inactive”.
In the case of `CCOC(=O)CN1C(=O)S/C(=C/C=C/c2ccc(N(C)C)cc2)C1=O`, the Potency is reported as inconclusive: 3.98 µM [inhibitor, partial curve].
With `CCCSc1nc(C)c(-c2csc(C(C#N)=C3CCCC3)n2)cc1C#N` the Potency was inconclusive: 0.891 µM [inhibitor, full curve, poor fit].
For `COc1cc(NC(=O)c2ccc3c(c2)OCCO3)ccc1NC(=O)c1cccs1`, the Potency was inconclusive: 0.562 µM [inhibitor, full curve, poor fit].
With `Cc1ccc(C(=O)Nc2ccncc2)c(Cl)c1` the Potency was inconclusive: 35.5 µM [inhibitor, partial curve, poor fit].
With `Cc1ccc(S(=O)(=O)CCSc2nc(C)cc(C)c2C#N)cc1` the Potency was inconclusive: 10 µM [inhibitor, partial curve].
With `O=C(NCCN1CCOCC1)c1ccc(/C=C2\Sc3ccccc3N(Cc3ccc(F)cc3)C2=O)cc1` the Potency was inconclusive: 31.6 µM [inhibitor, single point].
With `O=C(COc1ccc(S(=O)(=O)NC2CCCC2)cc1)N1CCCCCC1` the Potency was “inactive”.
For `COc1ccc(S(=O)(=O)N2CCCCC2)cc1NC(=O)CCc1cc(OC)c(OC)c(OC)c1`, the Potency was “inactive”.
For `COc1cc2c(cc1NC(=O)COC(=O)CNC(=O)c1ccccc1)oc1ccccc12`, the Potency was active: 10 µM.
With `C=CCN(Cc1cccs1)C(=O)CN1CCN(S(=O)(=O)c2ccc3c(c2)OCCCO3)CC1` the Potency was inconclusive: 31.6 µM [inhibitor, single point].
In the case of `COc1cnc(-c2ccccn2)nc1Sc1ccc(C)cc1`, the Potency is reported as inconclusive: 8.91 µM [inhibitor, partial curve].
In the case of `C[C@]12CCC3C(CC[C@H]4C[C@@H](O)CC[C@]34C)C1C[C@@H](N)[C@@H]2O` (stereo partly specified), the Potency is reported as inconclusive: 2.82 µM [inhibitor, partial curve].
In the case of `COC(=O)c1cn(NC(=O)c2ccc(OC)c(OC)c2)c(=O)c2ccccc12`, the Potency is reported as “inactive”.
In the case of `Cn1nc(C(=O)Nc2ccc(S(=O)(=O)NCc3ccco3)cc2)c2ccccc2c1=O`, the Potency is reported as inconclusive: 8.91 µM [inhibitor, partial curve].
For `COc1ccc(C(C(=O)NCC2CCCO2)N(C(=O)CNC(=O)c2cccs2)c2ccc(C)cc2)cc1OC` (stereo unspecified), the Potency was “inactive”.
With `COC(=O)c1ccc(C)c(NC(=O)CCSc2ccc(Cl)cc2)c1` the Potency was inconclusive: 31.6 µM [inhibitor, single point].
For `CC(C)(C)NC(=O)C(c1ccncc1)N(Cc1ccco1)C(=O)c1ccc(-c2ccccc2)[nH]1` (stereo unspecified), the Potency was “inactive”.
In the case of `C/C(=N\NC(=O)NC1CCCCC1)c1ccc(OC(F)F)cc1OC(F)F`, the Potency is reported as inconclusive: 11.2 µM [inhibitor, partial curve].
For `O=C(NC1CCCCCC1)c1ccc(CS(=O)Cc2ccccc2Cl)o1` (stereo unspecified), the Potency was “inactive”.
For `COc1ccc(OC)c(Nc2ncnc3ccc(Br)cc23)c1`, the Potency was inconclusive: 11.2 µM [inhibitor, single point].
With `COc1ccc2cc3cc(C(=O)NCC4COc5ccccc5O4)oc3nc2c1` (stereo unspecified) the Potency was inconclusive: 31.6 µM [inhibitor, single point].
In the case of `Cc1ccc(C(=O)NCC(=O)Nc2ccc(F)c(F)c2F)cc1`, the Potency is reported as “inactive”.
For `CC1=CC(C)(C)N(C(=O)CSc2ncn[nH]2)c2ccc(C)cc21`, the Potency was inconclusive: 10 µM [inhibitor, partial curve].
For `Cc1ccc(OCCC(=O)OCC(=O)NCc2ccccc2)cc1`, the Potency was inconclusive: 0.316 µM [inhibitor, full curve, poor fit].
For `COc1ccccc1CCNC(=O)C1(C)CC1(Cl)Cl` (stereo unspecified), the Potency was “inactive”.
In the case of `S=c1nc(SCc2ccccc2)[nH]c2ccccc12`, the Potency is reported as “inactive”.
With `CN(c1ccc(O)cc1)c1nc(O)c(C2=c3ccccc3=NC2=O)s1` the Potency was inconclusive: 11.2 µM [inhibitor, single point].
In the case of `CS(=O)(=O)N(CC(=O)O)c1cccc(Cl)c1`, the Potency is reported as inconclusive: 5.62 µM [inhibitor, single point].
For `CCc1c(C)sc(NC(=O)C2CCCO2)c1C#N` (stereo unspecified), the Potency was inconclusive: 2.24 µM [inhibitor, single point].
